Laboratory results as given in PubChem BioAssay AID588855 (National Center for Advancing Translational Sciences (NCATS), 2011).
Where “and” joins values, the source holds several entries; their conditions need not be identical. Equal entries are not always repeated. The campaign covered roughly 410,000 compounds. About 5,000 (1.2%) were called active. The shares of active, inactive and inconclusive entries below differ from those in the screen. Calls follow the shape of the dose curve; as a rule, active = well fitted inhibition curve with a large enough effect; inconclusive = small, poorly fitted or top-dose-only effect; inactive = no such curve, though single readings can be large or run the other way. Potencies of inconclusive entries are doubtful fits and often do not repeat.

Assay: qHTS for Inhibitors of TGF-b; also: nearly all actives have a fitted effect of over 65% in size
Details: HepG2 CAGA-GFP TGF-b/SMAD3 reporter, GFP fluorescence, 18 h, TGF-beta stimulated, 500 pg/mL final; series mostly up to 46.1 µM; activity, negative = inhibition: at the top concentration
Outline: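 TGF-beta reporter screen: HEPG2 CAGA-GFP, 1% FBS, 500 pg/mL TGF-beta final, 18 h; per-cell GFP summed per well; curves fitted and categorized by class.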
% is scaled to controls: 0 for no effect and ±100 for the full control effect; potency is read from the fitted curve at half-maximal effect; tags tell the direction and shape of the fitted curve.

Row | Structure (SMILES) | Potency | activity, negative = inhibition
1 | Cc1ccc(NC(=O)c2c(C(F)(F)F)nn(C)c2SCc2ccc(Cl)cc2)cc1C | inconclusive: 15.8 µM [inhibitor, single point] | –
2 | Cc1noc(C)c1S(=O)(=O)N(CC(=O)NC(C)c1ccccc1)c1ccc(C(C)C)cc1 (stereo not drawn) | inconclusive: 5.62 µM [inhibitor, single point] | –
3 | COc1cc(Cl)ccc1OC1(C)CCN(Cc2ccc3ccccc3c2)C1 (stereo not drawn) | inconclusive: 28.2 µM [inhibitor, single point] | –
4 | COC(=O)N1CCCCC1c1cc(C(=O)NCc2ccccc2)no1 (stereo not drawn) | – | inactive: -1.77%
5 | N=C(N)SCc1cn(-c2ccccc2)nc1-c1ccc(Br)cc1 | inconclusive: 11.2 µM [inhibitor, single point] | –
6 | Cc1cc(=O)oc2c(C)c(OC3CCCCC3=O)ccc12 (stereo not drawn) | – | inactive: 0%
7 | CCCCCc1cc(=O)oc2c(C(CCN3CCCCC3)c3ccc(OC)cc3)c(OC)cc(OC)c12 (stereo not drawn) | inconclusive: 35.5 µM [inhibitor, single point] | –
8 | OC[C@@H]1CN(Cc2ccncc2)C[C@H](n2cnc3c(NC4CCCC4)ncnc32)O1 | – | inactive: -2.65%
9 | Cc1nn(C)c(C)c1NC(=O)COc1ccc(Cl)cc1 | inconclusive: 7.94 µM [inhibitor, partial curve, poor fit] | –
10 | COc1ccccc1-c1nnc(SCC(=O)N2CCCCC2)o1 | inconclusive: 5.62 µM [inhibitor, single point] | –
11 | CCOC(=O)C1=CCN(S(=O)(=O)c2cccc(Cl)c2)C1c1ccc(Br)cc1 (stereo not drawn) | inconclusive: 15.8 µM [inhibitor, single point] | –
12 | CC(C)(CN1CCNCC1)NS(=O)(=O)c1ccc(Cl)cc1 | inconclusive: 25.1 µM [inhibitor, single point] | –
13 | Cc1ccccc1OCC(O)CNC1CCC(NCC(O)COc2ccccc2C)CC1 (stereo not drawn) | active: 5.62 µM | –
14 | CCC(C)Nc1nc(N)c([N+](=O)[O-])c(NCc2ccccc2)n1 (stereo not drawn) | inconclusive: 31.6 µM [inhibitor, single point] | –
15 | Cn1cc(CN(C(=O)Nc2ccccc2)C2CCCCC2)c2ccccc21 | inconclusive: 35.5 µM [inhibitor, single point] | –
16 | CNC[C@H]1OCc2ccccc2-c2ccccc2C(=O)N([C@@H](C)CO)C[C@H]1C | – | inactive: 0.259%
17 | COc1cc2cnc(-c3ccccc3)cc2cc1OC | – | inactive: 0.289%
18 | CC(C)(C)c1ccc(C(=O)Nc2ccc(S(N)(=O)=O)cc2)cc1 | inconclusive: 12.6 µM [inhibitor, single point] | –
19 | COc1ccc(S(=O)(=O)NCCc2nnc3ccc(SCC(=O)Nc4ccccc4C)nn23)cc1 | – | inactive: 16.7%
20 | CN(C)Cc1csc(NC(=O)Nc2ccccc2Oc2ccccc2)n1 | inconclusive: 22.4 µM [inhibitor, single point] | –
21 | Cc1ccc(CNC2CCCCC2)s1 | – | inactive: 10.1%
22 | Oc1ccc(/C(Cc2ccc3ccccc3n2)=N\Nc2ccccc2)c(O)c1 | inconclusive: 11.2 µM [inhibitor, single point] | –
23 | Cc1ccc(-n2cc(CNCCc3cscn3)c(-c3ccc(F)cc3)n2)cc1 | inconclusive: 35.5 µM [inhibitor, single point] | –

Row | Structure (SMILES) | Potency | activity, negative = inhibition
24 | CC1(C(=O)NCCc2c[nH]c3ccccc23)C=CC2(CCCCC2)N1C(=O)c1ccccc1 (stereo not drawn) | inconclusive: 2.51 µM [inhibitor, full curve, poor fit] | –
25 | O=C(Nc1cccc(NC(=O)C2CC3CCCC(C2)C3=O)n1)C1CC2CCCC(C1)C2=O (stereo not drawn) | inconclusive: 25.1 µM [inhibitor, single point] | –
26 | CCc1cc2ccc(C)cc2nc1SCC(=O)N1CCN(C(=O)c2ccco2)CC1 | inconclusive: 35.5 µM [inhibitor, single point] | –
27 | CCc1ccc2c(c1)NC(=O)C2(C)Cc1cccc(F)c1 (stereo not drawn) | – | inactive: -7.45%
28 | Cc1nn2c(NCCOCCO)c3c(nc2c1-c1ccccc1)CCCC3 | – | inactive: -17.5%
29 | COCCCN1C(=O)C(=O)/C(=C(/O)c2ccc(S(=O)(=O)N3CCOCC3)cc2)C1c1ccc(Cl)cc1 (stereo not drawn) | – | inactive: -4.51%
30 | CCc1ccc(/C=C/c2c[nH]c3ccccc23)[n+](CC)c1 | inconclusive: 10 µM [inhibitor, partial curve, poor fit] | –
31 | CCC(=O)NC(c1ccc(OC)cc1)c1cc(Cl)c2cccnc2c1O (stereo not drawn) | active: 7.94 µM | –
32 | COc1ccc(CNc2nn3c(-c4cccc(C(=O)N(C)C)c4)cnc3s2)cc1 | inconclusive: 20 µM [inhibitor, single point] | –
33 | N#Cc1sc(NCc2cccc(Cl)c2)nc1Cl | inconclusive: 22.4 µM [inhibitor, single point] | –
34 | CCOC(=O)n1c(=O)n(Cc2ccccc2C)c2ccccc21 | – | inactive: 2.31%
35 | CC(NC(=O)CC(c1ccccc1)c1cc(Cl)ccc1O)c1ccccc1 (stereo not drawn) | active: 15.8 µM | –
36 | COCCNC(=O)c1cccc(OC2CCN(Cc3ccc(C(C)C)cc3)CC2)c1 | – | inactive: -21.3%
37 | C[C@@H](C(=O)O)[C@@H]1C[C@@]1(C)[C@@H](NC(=O)OCc1ccccc1)c1ccccc1 | – | inactive: -2.93%
38 | CCN1CCCC1CNC(=O)c1cc2c(OC)c(OC)c(OC)cc2[nH]1 (stereo not drawn) | – | inactive: 4.19%
39 | CN(C)C(=O)CCc1ccc2c3c([nH]c2c1)[C@]1(C)[C@@H](C(=O)N2CCCCC2)C[C@H](CC(=O)NCC24CC5CC(CC(C5)C2)C4)C(=O)N1CC3 | inconclusive: 22.4 µM [inhibitor, partial curve, poor fit] | –
40 | COc1cccc(-c2nc(CS(=O)(=O)CC(=O)NCc3cccc(Cl)c3)c(C)o2)c1 | inconclusive: 1.58 µM [inhibitor, full curve, poor fit] | –
41 | Cc1ccc(CSc2ncc(Cl)c(C(=O)Nc3nnc(C)s3)n2)cc1 | – | inactive: 6.13%
42 | Oc1ccc(Cl)cc1-c1cc(-c2ccco2)[nH]n1 | inconclusive: 15.8 µM [inhibitor, single point] | –
43 | CCN1Cc2c(/C=C/c3ccccc3)nc3ccc(OC)cc3c2N(c2cccc(Cl)c2)C1 | inconclusive: 11.2 µM [inhibitor, partial curve, poor fit] | –
44 | CCN(c1ccccc1)c1nc(C#N)nc(N(CC)c2ccccc2)n1 | inconclusive: 35.5 µM [inhibitor, single point] and inconclusive: 22.4 µM [inhibitor, single point] | –
45 | CC(OC(=O)Nc1cccc(Cl)c1)C(=O)OC1CCCCC1 (stereo not drawn) | inconclusive: 35.5 µM [inhibitor, single point] | –
46 | O=C(CN1C(=O)CCC1=O)Nc1nc(-c2ccccn2)cs1 | – | inactive: -5.17%

Row | Structure (SMILES) | Potency | activity, negative = inhibition
47 | CCOc1ccc(-n2c(Cc3ccccc3)nnc2SCc2c(C)noc2C)cc1 | inconclusive: 3.16 µM [inhibitor, partial curve] | –
48 | COc1ccc(-n2ncc3c(=O)n(CC(=O)N4CCCc5ccccc54)cnc32)cc1 | – | inactive: 38.9%
49 | Cc1c(C(=O)NCc2ccco2)cccc1[N+](=O)[O-] | inconclusive: 25.1 µM [inhibitor, single point] | –
50 | Oc1ccc(/C=N/Nc2ccnc3cc(Cl)ccc23)c(O)c1O | – | inactive: -0.0296%
51 | CCc1ccc(/C=N/n2c(C)cc(C)c(C#N)c2=O)cc1 | inconclusive: 3.16 µM [inhibitor, full curve, poor fit] | –
52 | Cc1c(NC(=O)COC(=O)Cc2ccc(F)cc2)c(=O)n(-c2ccccc2)n1C | – | inactive: 19.7%
53 | Cc1ccc(CN2C(=O)c3ccccc3Sc3ccc(C(=O)NCCN4CCOCC4)cc32)cc1 | inconclusive: 11.2 µM [inhibitor, single point] | –
54 | O=C(CSc1ncc(-c2ccccc2)n1C1CCCC1)N1CCc2ccccc21 | inconclusive: 35.5 µM [inhibitor, single point] | –
55 | CN(C)c1ncc(CN2CCC(C(=O)Nc3ccc(-n4cccn4)cc3)CC2)s1 | inconclusive: 3.16 µM [inhibitor, single point] | –
56 | Cc1ccccc1-c1cccc([C@@H]2C[C@H]3[C@H](CON3C)CN2Cc2cc(Cl)cc(Cl)c2)c1 | – | inactive: -19.2%
57 | COc1c(C)cccc1C(=O)Nc1ccc(-c2nc3ccccc3s2)c(Cl)c1 | – | inactive: 27.7%
58 | COC(=O)c1cc2c(n1S(=O)(=O)c1ccc(C)cc1)C(=O)C(=O)c1[nH]cc(C(=O)OCc3ccccc3)c1-2 | inconclusive: 0.631 µM [inhibitor, full curve, poor fit] | –
59 | CCOC(=O)c1c(-c2ccc(Cl)cc2)csc1NC(=O)CNCc1ccco1 | inconclusive: 15.8 µM [inhibitor, single point] | –
60 | Cc1ccc(N2C(=O)c3ccc(C(=O)N4CCN(c5ccc(C)c(C)c5)CC4)cc3C2=O)cc1 | inconclusive: 35.5 µM [inhibitor, single point] | –
61 | O=[N+]([O-])c1ccc(S(=O)(=O)Nc2nnc(C(F)(F)F)s2)cc1 | inconclusive: 35.5 µM [inhibitor, single point] | –
62 | Cc1ccc(NC(=O)CC2Oc3ccccc3NC2=O)cc1C (stereo not drawn) | inconclusive: 2.82 µM [inhibitor, full curve, poor fit] | –
63 | Cc1ccc2c(c1)c(C)c(C)n2CC(O)Cn1nc(C)c(Br)c1C (stereo not drawn) | inconclusive: 22.4 µM [inhibitor, single point] | –
64 | CCOC(=O)c1cc(=O)n2nc(-c3ccccc3F)nc2s1 | – | inactive: 4.33%
65 | COc1ccc(-c2cnnn2-c2ccc(NC(=O)c3ccccc3OC)cc2)cc1 | inconclusive: 35.5 µM [inhibitor, single point] | –
66 | Cc1cccc(C2c3[nH]c4ccccc4c3CCN2C(=O)Cc2nc(-c3ccccc3)n[nH]2)n1 (stereo not drawn) | inconclusive: 0.794 µM [inhibitor, full curve, poor fit] | –
67 | COc1ccc(CCNC(=O)CN2C(=O)COc3ccc(S(=O)(=O)N4CCCC4)cc32)c(OC)c1 | inactive | –
68 | Cc1ccc(S(=O)(=O)N2CCC(C(=O)OCC(=O)N(CC(C)C)C3CCS(=O)(=O)C3)CC2)cc1C (stereo not drawn) | – | inactive: 5.92%
